Self-cleavage data for 167 variants are collected here from the RNAGym collection of RNA variant scans (doi:10.7554/elife.90254).

The source gives no read counts; variants with many changes may rest on few reads.

B1: LINE1-full (parent)
chain: UACGUAGGUGGUUUUCCCCUGAUAGUGCUAAGGGGGCCUGGAAGUUUGGACUGGGCAGAGCUCAACACAGCGUGGCAAAGUGGCUGUGGCUAGACUGCCUCUCUGGAUUCCUCGUCACUCAGCAGGGCAUCUCUGAGAGAAAUGCC

In the series the parent is B1. Nature of the series: self-cleavage, relative activity (ratio to wild type); higher = more cleavage; in vitro, sequencing; the parent is a self-cleaving ribozyme.
Turning to A43G A77U U96A A129G A136G, the self-cleavage was 0.07.

For the variant U62C C76U U104C A142G, the self-cleavage came out at 0.02.

Take A59G U102A U112G A138G: the self-cleavage was determined as 0.57. With A57G U108C U134C, the self-cleavage is 2.63. The same measure for A2G G35C A129G A136G: 1.39; for U26A A30C A57U A79G U87A: 0. With U20A U73A U102A A117U, the self-cleavage turned out to be 0.76.

Turning to U12C A22C A129C, the self-cleavage worked out at 2.44. Consider U14A U52A G89C A94G C128G, for which the self-cleavage is 0.06.

For the variant U85C U108A A129G, the self-cleavage worked out at 0.22.

Take A64C U104C A136G: the self-cleavage came to 0.58.

Take U52C U62C U119C A124G A141G C146G: the self-cleavage stood at 0. Turning to G8A U20C U39C, the self-cleavage worked out at 0.61. With U14C U26C U85C G122U, the self-cleavage stood at 0.15. Regarding U47A A67G G127U, the self-cleavage stood at 0.52. For G82A U112A A117G, the self-cleavage was found to be 2.34.

Take U9C A77G A107U: the self-cleavage came to 2.46. For C19U U26C G58U A77G, the self-cleavage stood at 0.02. Turning to U9C U100C U115C U132A, the self-cleavage turned out to be 2.3. As for G27A U39A A79G A129G A142G, the self-cleavage was 0.79.

U102C U115A U132A: the self-cleavage turned out to be 1.31. As for U12C G88A U132C, the self-cleavage was found to be 0.03. For the variant G54A U104A G126A U134C, the self-cleavage amounted to 0.36. Turning to G32A U96C C131G, the self-cleavage was 0.04.

Consider U9C U13C A117U A121U A136G A142G, for which the self-cleavage came out at 1.4. G36A A94G U96A U130A: the self-cleavage was determined as 0.09.

A59U A65G U130A: the self-cleavage was determined as 0.05. Regarding C123G G127A G135U, the self-cleavage is 1.24. A22G A24C U39C C68U U81A G88A U115A: the self-cleavage came to 0.06.

For A2U U9C A121G, the self-cleavage is 1.43.

On to A57U U119C U134G, for which the self-cleavage stood at 0.31. As to U26A U46A A59G U134G, the self-cleavage was 0.05. The same measure for U85A A121G A141G: 0.11; for G33A A50G U102C: 0.62. With A30G A42G A141G, the self-cleavage is 0.31. The same measure for U26C A42G G72A U108C A124G: 2.92; for U13C A77G A78U A79U: 1.87. For the variant U39A A50G U73C, the self-cleavage was determined as 1.23.

Take C38U A65U C90G: the self-cleavage came out at 0.04. In the case of A78G U85A U87C, the self-cleavage came out at 0. With U52C U134A A142G, the self-cleavage came out at 0.52. The same measure for A64G U102C A129G: 0.18; for U102C C116U U134C: 1.12; for A31U U62C U102C: 0.

Turning to C37U A65U U132C, the self-cleavage turned out to be 0.15.

As for U13C U108A U115A A142G, the self-cleavage came to 1.41. Turning to U5A A57U U62A U96G, the self-cleavage is 0. The same measure for G11A G36A A43U A64U A124G: 0.15; for U62C U130A A140G: 0.03.

A24U U104A U143A: the self-cleavage was 1.21. Consider A6G U85C U104C A117U, for which the self-cleavage was determined as 0.16.

Turning to A79U U81G G82A U91A C103A A121G, the self-cleavage is 1.22.

U14A A50G A121G: the self-cleavage is 0.63. Turning to U45C U47A A69C U91A, the self-cleavage is 0.12. For the variant U1C A59C A77G U130C, the self-cleavage was 1.62. In the case of U15C U39C A69U A141U U143C, the self-cleavage was determined as 0.13. On to U73C A79G U81A, for which the self-cleavage was 1.49. U20C U39A C51U: the self-cleavage was found to be 0.8. With U100C U108C U132A, the self-cleavage worked out at 1.43. On to U15C A42G A69G C84U U100C, for which the self-cleavage stood at 0.1.

For the variant A43G G60A A78C A121G, the self-cleavage came out at 0.04. With U119A U130C U134A, the self-cleavage amounted to 1.48. With U20C U47C A129G A136U, the self-cleavage came to 1.4.

U102G U115A A124G U132C A141G: the self-cleavage worked out at 0. As for A43G A78G U112C, the self-cleavage worked out at 1.87. With U46C U47A A59G, the self-cleavage was 0.11. The same measure for G4A U91C A107U G127A: 0.57; for U26C A42U A43G: 0; for U102A A129G A141G C145U: 0.67. For the variant A2G U5C U47C A57U U73A U91C C131U, the self-cleavage came to 0. U1C U12G A129G: the self-cleavage came out at 1.46. Consider A22G U119A A121G A138G, for which the self-cleavage came out at 1.89. The same measure for C19U C76U A124G: 1.61; for U12C U47C A67G: 0.95. Take U14A G40A A65C A121U: the self-cleavage turned out to be 0.03. For U12A C99U U104C A140U, the self-cleavage was 1.55. The same measure for U20C G33A U73C: 1.58; for U85C U96C A129G: 0; for G86A A92U C116A: 0.07. Regarding A30U A50G A77G, the self-cleavage was 0.92.

For the variant U39A A65G G75U, the self-cleavage was found to be 0.02. The same measure for U39G A67G G106U A117G: 0.24; for U14A U62C U81A A94G: 0.26.

On to G4A U20C U115C, for which the self-cleavage was found to be 2.67. For A50U U73A A140C, the self-cleavage turned out to be 0.98. For A69U G114A U130C, the self-cleavage amounted to 0.1. A65G U87G A138G: the self-cleavage was 0.92. For A43G A79U A94G, the self-cleavage was determined as 0.66. In the case of U12A U96G C99U C146A, the self-cleavage amounted to 0.09. Turning to A22U A94G C145U, the self-cleavage was 0.18. On to G21A A31G C51U A121U A138U, for which the self-cleavage was 0.7.

For the variant U47A U115C A121G, the self-cleavage turned out to be 0.85.

As for U46C A69G G114A, the self-cleavage was 0.76. For U23A G58A A142C, the self-cleavage worked out at 0.07. Turning to U14G A94G U102C, the self-cleavage worked out at 0.3. For G48A U85C U100C, the self-cleavage amounted to 0.23. Turning to U13C A77G U85C A142G, the self-cleavage turned out to be 0.25.

For the variant A24U G58U U81A C113U, the self-cleavage turned out to be 0.06. In the case of U20C U62C A92G U143C, the self-cleavage was determined as 0.

As for U62C U81A C128A, the self-cleavage came out at 0.02. The same measure for G36A G40A U46C A94G A140U: 0.09; for U26A A69U U100C A142G: 0.08.

As for U1A U62C U73C A140G A141G U143G, the self-cleavage was 0.

As for U15C A69G G106A A124G, the self-cleavage was 0.07.

For A50G A79U A129G U132C A142G, the self-cleavage came out at 2.63. Take A2G U12G U39C G48A: the self-cleavage stood at 0. Turning to G8A U13C G35U, the self-cleavage amounted to 2.2. Take C76U U109A A140G: the self-cleavage is 0.

For the variant A22G U73A U119A, the self-cleavage came to 1.43. For U14C U100A U130C, the self-cleavage was 1.01. With U12C U13A U73A A77U U85C C123U, the self-cleavage was found to be 0.11. Regarding U62A A121G A141G, the self-cleavage was 0.05. The same measure for A69U A79G U91C: 0. In the case of A2U U85C U102A G125A, the self-cleavage turned out to be 0.2. As to A57G A69G A78G U132C, the self-cleavage turned out to be 0. Turning to U9C G127C U143C, the self-cleavage turned out to be 1.72. For the variant A65G U100C A136U, the self-cleavage is 0. With A78U A129G A140G, the self-cleavage was found to be 2.53. Regarding U29C U47A U85C G88A, the self-cleavage came out at 0.07. U15G A42G U45G C95A: the self-cleavage amounted to 0.14. As for G48A A79G A142G, the self-cleavage was 1.01.

As for G35A U39C U96A U119C A121G A138G, the self-cleavage stood at 0.09. Turning to U12G U46C U62C, the self-cleavage stood at 0.11. Regarding A67G U130A A136G, the self-cleavage is 0.72.

With A57U A59G C76U U134A, the self-cleavage stood at 0.04. With U14C G40A U45C U52A A57U A129G, the self-cleavage amounted to 0.12. Consider U13C U46C A77U A78G A140G, for which the self-cleavage came out at 1.44. For the variant U1A G40A A67G, the self-cleavage is 0. The same measure for U47C C61U G72A U85C A142G: 0.03. The same measure for A6U A78U A94U U134C A140G: 0.57. Take U47C A107C C120U: the self-cleavage was found to be 2.1. The same measure for U14C A78G C118U: 1.67; for U9A C51U U87A A94G: 0.15; for A30G A57G A136U: 0.54. As to A2G A6G U96C U115A A117G, the self-cleavage was found to be 0.66. The same measure for G33U G41U G49A: 0.98. As for U52C G72A A136G, the self-cleavage stood at 1.38. As to U26A U29C A79U U112C G127A, the self-cleavage turned out to be 1.82.

On to U73A U85C U96A, for which the self-cleavage amounted to 0.06. Consider U26A U112C C113U A129G, for which the self-cleavage is 0.23. U29C U91C A107G: the self-cleavage turned out to be 0.77. As for U46C U47A A79G, the self-cleavage turned out to be 0. The same measure for A43G U46C U115C U132C: 0; for A42G A57G A140G C146U: 0.69.

In the case of U14A A121G A124U, the self-cleavage amounted to 1.41. For G35U G83U U130A, the self-cleavage came to 0.72. A6G U81C A92U: the self-cleavage amounted to 1.08. In the case of U12C U15A A30G A78G A117G A138U, the self-cleavage is 2.3. U20A U39A A92G: the self-cleavage amounted to 0.13. Turning to U12C U14C U15C A136G, the self-cleavage was found to be 1.02.

For the variant U1A U13A U85C, the self-cleavage is 0.19.

With A50G A57G C123U, the self-cleavage was found to be 0.23. Regarding U9C U12C A24U U45C, the self-cleavage turned out to be 0.84.

U15A G32A G88C: the self-cleavage came out at 0.05. Take C61U U85A U109C A142G: the self-cleavage came out at 0.04. For the variant U45C U112C U119C, the self-cleavage came to 0. The same measure for C17A C68U U109A A129G A138G: 0.05; for U14A U15C A117G: 1.56; for U29C A67G A142G: 0.62.

For the variant U73A U91C U119A G139U, the self-cleavage amounted to 0.28.

As to U12C U14C G27A U62C A69G, the self-cleavage came out at 0.2.

Regarding U12C A42G C71G U73G, the self-cleavage was 0.34. Turning to C98G U132C U143A, the self-cleavage worked out at 0.1.

As for A79G U87A U130C U143C, the self-cleavage was 0. With A2G C37U G88A A142G, the self-cleavage was determined as 0.03. As for U5G A69G U91A A107G C111U, the self-cleavage is 0. In the case of U14C U109C C113U, the self-cleavage was 1.25.
